# Measurements: PubChem BioAssay (NCI)
#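 Assay format: 96-well plates, 48-hour exposure. GI50 = concentration required for 50% inhibition of growth.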 Not every entry of the source has a single result; some have several. Only these are listed. There may be further records. For some assays here: Results that share an entry are repeated measurements across runs, samples, wells, individuals or studies. Brackets tell where a record comes from. A, B and so on number the origins entry by entry.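 TGI: concentration producing complete growth inhibition.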 For some assays here: The tests behind the records often covered other concentration ranges, which the source does not state; a value can be the end of its range. *1 amine or outer side, *2 acyl side, *3 side chain or, on linkers, in order; H or OH if unused. Where a SMILES comes first, the peptide text is derived from it. Bridges are numbered along the chain shown (N, C = ends). [ ]: non-standard residue; d: D form. ξ: configuration not given here. X4 = CCC(C)C(N[*:1])C(O)CC(=O)O[C@H](C(=O)C(C)C(=O)[*:2])C(C)C; NMeY = CN[C@@H](Cc1ccc(O)cc1)C(=O)O; X3 = O=C([C@@H]1CC(O)CN1[*:1])[*:2]; ξNMeL = CNC(CC(C)C)C(=O)O; ξT = CC(O)C(N)C(=O)O
# Assays:
# Assay in all cases: growth of human tumour cells (NCI), 48 h
# K-562 leukemia = system: K-562 leukemia
# CCRF-CEM leukemia = system: CCRF-CEM leukemia
# SR leukemia = system: SR leukemia
# KM12 colon = system: KM12 colon
# OVCAR-5 ovarian = system: OVCAR-5 ovarian
# UACC-62 melanoma = system: UACC-62 melanoma
# MCF7 breast = system: MCF7 breast
# HCT-116 colon = system: HCT-116 colon
# RPMI-8226 leukemia = system: RPMI-8226 leukemia
# HL-60(TB) leukemia = system: HL-60(TB) leukemia
# MDA-MB-231 breast = system: MDA-MB-231 breast
# SF-539 CNS = system: SF-539 CNS
# HS 578T breast = system: HS 578T breast
# OVCAR-8 ovarian = system: OVCAR-8 ovarian
# OVCAR-3 ovarian = system: OVCAR-3 ovarian
# SNB-19 CNS = system: SNB-19 CNS
# SN12C renal = system: SN12C renal
# SK-OV-3 ovarian = system: SK-OV-3 ovarian
# NCI-H522 lung = system: NCI-H522 lung
# HOP-62 NSCLC = system: HOP-62 NSCLC
# NCI-H226 lung = system: NCI-H226 lung
structure (smiles),measurement,setting,value
COc1cc(N2CCC(N(C)C)CC2)ccc1Nc1ncc(Cl)c(Nc2ccccc2P(C)(C)=O)n1,GI50,K-562 leukemia,"3.32 µM [sample A, mean of 2 tests] and 269 nM [sample B, mean of 2 tests]"
same,GI50,CCRF-CEM leukemia,"3.27 µM [sample A, mean of 2 tests] and 238 nM [sample B, mean of 2 tests]"
same,TGI,SR leukemia,"> 28.5 µM [sample A, mean of 2 tests] and 2.37 µM [sample B, 1 test]"
same,GI50,KM12 colon,"2.93 µM [sample A, mean of 2 tests] and 128 nM [sample B, mean of 2 tests]"
Cn1cnc2c(F)c(Nc3ccc(Br)cc3Cl)c(C(=O)NOCCO)cc21,GI50,OVCAR-5 ovarian,"765 nM [sample A, mean of 3 tests] and 32.3 nM [sample B, mean of 2 tests]"
same,TGI,UACC-62 melanoma,"> 20.1 µM [sample A, mean of 3 tests] and 188 nM [sample B, 1 test]"
CCC(C)C1NC(=O)C(NC(=O)C(CC(C)C)N(C)C(=O)[C@@H]2CC(O)CN2)C(C)OC(=O)[C@H](Cc2ccc(OC)cc2)N(C)C(=O)[C@@H]2CCCN2C(=O)[C@H](CC(C)C)NC(=O)C(C)C(=O)[C@H](C(C)C)OC(=O)CC1O (stereo partly drawn) (H-[X3][ξNMeL][ξT][X4]LP[NMeY](Me); ester 3-C),TGI,MCF7 breast,166 nM and > 100 µM
same,TGI,HCT-116 colon,111 nM and 1.82 µM
same,TGI,RPMI-8226 leukemia,90.1 nM and > 100 µM
same,TGI,CCRF-CEM leukemia,415 nM and 35 nM
same,TGI,HL-60(TB) leukemia,104 nM and > 100 µM
same,TGI,MDA-MB-231 breast,160 nM and 2.47 µM
COC(=O)/C=C/c1cc(OC)c2c(c1)C(C(=O)OC)C(c1ccc(OC)c(OC)c1)O2 (stereo not drawn),GI50,SF-539 CNS,"> 100 µM [sample A, 1 test] and 1.82 µM [sample B, mean of 2 tests]"
same,TGI,SF-539 CNS,"> 100 µM [sample A, 1 test] and 7.12 µM [sample B, mean of 2 tests]"
same,TGI,HS 578T breast,"> 100 µM [sample A, 1 test] and 5.96 µM [sample B, 1 test]"
same,GI50,OVCAR-8 ovarian,"> 100 µM [sample A, 1 test] and 6.28 µM [sample B, mean of 2 tests]"
same,GI50,OVCAR-3 ovarian,"> 100 µM [sample A, 1 test] and 2.29 µM [sample B, mean of 2 tests]"
same,GI50,SNB-19 CNS,"> 100 µM [sample A, 1 test] and 2.09 µM [sample B, mean of 2 tests]"
same,GI50,SN12C renal,"> 100 µM [sample A, 1 test] and 6.5 µM [sample B, mean of 2 tests]"
same,GI50,SK-OV-3 ovarian,"> 100 µM [sample A, 1 test] and 5.5 µM [sample B, mean of 2 tests]"
same,GI50,NCI-H522 lung,"> 100 µM [sample A, 1 test] and 3.8 µM [sample B, mean of 2 tests]"
same,GI50,HOP-62 NSCLC,"> 100 µM [sample A, 1 test] and 6.46 µM [sample B, mean of 2 tests]"
same,GI50,NCI-H226 lung,"> 100 µM [sample A, 1 test] and 2.86 µM [sample B, mean of 2 tests]"
